T1: Cyno CD98hc ECD Avi-His (cynomolgus macaque, UniProt P08195 105-529 (human entry))
T1 construct: biotinylated on the Avi tag where captured on streptavidin; also called Cyno CD98-AVI-His; Cyno CD98hc-AVI-His
T1 chain: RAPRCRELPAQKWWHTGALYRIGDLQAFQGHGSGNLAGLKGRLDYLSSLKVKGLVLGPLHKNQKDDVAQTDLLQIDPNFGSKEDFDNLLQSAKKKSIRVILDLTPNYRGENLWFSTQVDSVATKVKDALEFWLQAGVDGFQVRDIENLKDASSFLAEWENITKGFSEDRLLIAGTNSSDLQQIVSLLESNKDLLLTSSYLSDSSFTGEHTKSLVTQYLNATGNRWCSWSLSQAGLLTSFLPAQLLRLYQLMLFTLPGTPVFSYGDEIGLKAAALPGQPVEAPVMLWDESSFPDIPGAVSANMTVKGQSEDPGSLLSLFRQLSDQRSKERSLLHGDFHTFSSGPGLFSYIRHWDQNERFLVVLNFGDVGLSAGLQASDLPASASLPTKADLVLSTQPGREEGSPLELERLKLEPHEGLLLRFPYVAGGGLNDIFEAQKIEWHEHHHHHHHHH

T2: huCD98hc ECD Avi-His (human, UniProt P08195 105-529)
T2 construct: biotinylated on the Avi tag where captured on streptavidin; also called Human CD98-AVI-His; Human CD98hc-AVI-His
T2 sequence: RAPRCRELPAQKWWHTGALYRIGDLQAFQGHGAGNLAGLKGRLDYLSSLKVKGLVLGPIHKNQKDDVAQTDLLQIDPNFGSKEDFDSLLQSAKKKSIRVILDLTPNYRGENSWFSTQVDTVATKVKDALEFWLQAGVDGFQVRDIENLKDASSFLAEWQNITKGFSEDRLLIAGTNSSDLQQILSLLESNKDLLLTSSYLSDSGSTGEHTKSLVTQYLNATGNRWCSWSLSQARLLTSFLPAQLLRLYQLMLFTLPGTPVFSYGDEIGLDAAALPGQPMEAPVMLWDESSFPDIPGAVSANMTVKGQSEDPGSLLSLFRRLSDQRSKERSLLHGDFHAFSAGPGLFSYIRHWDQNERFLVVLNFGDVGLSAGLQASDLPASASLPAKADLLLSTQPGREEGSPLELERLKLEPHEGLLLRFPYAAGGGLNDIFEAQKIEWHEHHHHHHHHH


Key:
Cyno CD98hc ECD Avi-His = molecular target: T1, Cyno CD98hc ECD Avi-His; test: SPR, Carterra LSA, antibody immobilized
Experimental: (§1) Binding kinetics of 2+1 anti-CD98hc bispecific antibodies (from the hybridoma campaigns) to human and cyno CD98hc Avi-His were evaluated using a Carterra LSA instrument (Carterra, Salt Lake City, UT). The 2+1 anti-CD98hc bispecific antibodies were prepared in duplicates by diluting 50-fold into 10 mM Acetate, pH 5.0 (Carterra) to give final concentration of 20 μg/mL. An HC200M sensor chip (Carterra) was activated using the single channel flow cell with a 7-minute injection of a 1:1:1 mixture of 100 mM MES pH 5.5, 100 mM sulfo-NHS, 400 mM EDC (all reconstituted in MES pH 5.5; 100 μl of each mixed in vial immediately before running assay). After switching to the multi-channel array flow cell, the antibodies were injected over the activated chip in four 96-spot arrays for 15 minutes each. The remaining unconjugated active groups on the chip were then blocked by injecting 1M Ethanolamine pH 8.5 (Carterra) for 7 minutes using the single channel flow cell. The resulting sensor chip contained eight spots for each antibody, at four different densities. Two independent experiments were performed as follows, resulting in an N of between one and eight determinations for each antibody. Spots that yielded less than 20 RU of analyte binding were excluded from further analysis.
(§2) After priming with running buffer HBS-EP+ (Teknova) with 0.5 mg/ml BSA (MP Biomedicals), the immobilized 2+1 anti-CD98hc bispecific antibodies were tested for their ability to bind to several forms of CD98hc Avi-His, including human and cyno orthologs described above. Estimates of affinity were generated by injecting each analyte over the entire antibody array using the single channel flow cell. CD98hc Avi-His analytes were diluted with running buffer, in a series of six, three-fold serial dilutions starting from 600 nM for human and cyno CD98hc Avi-His. Analytes were injected for 5 minutes, and dissociation was followed for 10 minutes. After each analyte injection, antibodies were regenerated with Pierce IgG Elution Buffer (ThermoScientific). Data were processed and analyzed using NextGenKIT high-throughput kinetics analysis software (Carterra).
(§3) The equilibrium dissociation constants (KD) were calculated from the fitted association and dissociation rate constants (k-on and k-off) for 2+1 anti-CD98hc bispecific antibodies of the present disclosure.

huCD98hc ECD Avi-His = molecular target: T2, huCD98hc ECD Avi-His; test: SPR, Carterra LSA, antibody immobilized
Experimental: as §1, §2, §3

Binder	Kd (Cyno CD98hc ECD Avi-His)	Kd (huCD98hc ECD Avi-His)
CD98hc.04.058 (2+1 bispecific antibody) (bispecific antibody) heavy 1: EVRLLESGGGLVQPGGSLRLSCAASGFTFSNYAMGWVRQAPGKGLEWVSAISGSGGSTYYADSVKGRFTTSRDDSKNALYLQMNSLRAEDTAVYYCARGGPGWYAADVWGQGTTVTVSSASTKGPSVFPLAPSSKSTSGGTAALGCLVKDYFPEPVTVSWNSGALTSGVHTFPAVLQSSGLYSLSSVVTVPSSSLGTQTYICNVNHKPSNTKVDKKV[here human IgG1 Fc with changes without letters]GGGGSGGGGSGGGGSQVQLQQSGAELVRPGVSVKISCKASGYTFTDHTMHWVKQSHARSLEWIGVISTYFGDASYNPKFKGKATMTVDKSSNTAYMELARLTSEDSAIYYCARVGGRLRLGYYFDYWGQGTTLTVSSGGSEGKSSGSGSESKSTGGSNIMMTQSPSSLAVSAGEKVTMNCKSSQTVLYSSNQKNYLAWYQQKPGQSPKLLIYWASTRESGVPDRFTGSGSGTDFTLTISSVQVEDLAVYYCHQYLSSYTFGGGTKLEIK heavy 2: EVRLLESGGGLVQPGGSLRLSCAASGFTFSNYAMGWVRQAPGKGLEWVSAISGSGGSTYYADSVKGRFTTSRDDSKNALYLQMNSLRAEDTAVYYCARGGPGWYAADVWGQGTTVTVSS[here human IgG1 constant region with changes without letters] light: DIQMTQSPSSLSASVGDRVTITCRASQSISSYLNWYQQKPGKAPKLLIYAASSLQSGVPSRFSGSGSGTDFTLTISSLQPEDFATYYCQQADLPAFAFGGGTKVEIKRTVAAPSVFIFPPSDEQLKSGTASVVCLLNNFYPREAKVQWKVDNALQSGNSQESVTEQDSKDSTYSLSSTLTLSKADYEKHKVYACEVTHQGLSSPVTKSFNRGEC	–	25 nM
CD98hc.04.064 (2+1 bispecific antibody) (bispecific antibody, also called mouse CD98hc.04.064) heavy 1: EVRLLESGGGLVQPGGSLRLSCAASGFTFSNYAMGWVRQAPGKGLEWVSAISGSGGSTYYADSVKGRFTTSRDDSKNALYLQMNSLRAEDTAVYYCARGGPGWYAADVWGQGTTVTVSSASTKGPSVFPLAPSSKSTSGGTAALGCLVKDYFPEPVTVSWNSGALTSGVHTFPAVLQSSGLYSLSSVVTVPSSSLGTQTYICNVNHKPSNTKVDKKV[here human IgG1 Fc with changes without letters]GGGGSGGGGSGGGGSQVQLQQPGAELVRPGASVKLSCKASGYTFTSYWMNWVRQRPGQGLEWIGLIDPSDSETHYNQMFKDRATLTVDKSSSTAYMQLSSLTSADPAVYYCARASYGKGYFDYWGQGTTLTVSSGGSEGKSSGSGSESKSTGGSDIVMTQSPSSLAMSVGQKVTMSCKSSQSLLNNINQKNYLAWYQQKPGQSPKLLVYFASTRESGVPDRFIGSGSGTDFTLTINTVQAEDLADYFCQQHYSSPFTFGGGTKLEIK heavy 2: EVRLLESGGGLVQPGGSLRLSCAASGFTFSNYAMGWVRQAPGKGLEWVSAISGSGGSTYYADSVKGRFTTSRDDSKNALYLQMNSLRAEDTAVYYCARGGPGWYAADVWGQGTTVTVSS[here human IgG1 constant region with changes without letters] light: DIQMTQSPSSLSASVGDRVTITCRASQSISSYLNWYQQKPGKAPKLLIYAASSLQSGVPSRFSGSGSGTDFTLTISSLQPEDFATYYCQQADLPAFAFGGGTKVEIKRTVAAPSVFIFPPSDEQLKSGTASVVCLLNNFYPREAKVQWKVDNALQSGNSQESVTEQDSKDSTYSLSSTLTLSKADYEKHKVYACEVTHQGLSSPVTKSFNRGEC	–	26 nM

The next lines start with the values.

Kd (Cyno CD98hc ECD Avi-His)	Kd (huCD98hc ECD Avi-His)	Binder
29 nM	–	CD98hc.04.018 (2+1 bispecific antibody) (bispecific antibody) heavy 1: EVRLLESGGGLVQPGGSLRLSCAASGFTFSNYAMGWVRQAPGKGLEWVSAISGSGGSTYYADSVKGRFTTSRDDSKNALYLQMNSLRAEDTAVYYCARGGPGWYAADVWGQGTTVTVSSASTKGPSVFPLAPSSKSTSGGTAALGCLVKDYFPEPVTVSWNSGALTSGVHTFPAVLQSSGLYSLSSVVTVPSSSLGTQTYICNVNHKPSNTKVDKKV[here human IgG1 Fc with changes without letters]GGGGSGGGGSGGGGSQIQLVQSGPELKKPGETVKISCKASGYTFRNYGMNWVKQAPGKGLKWMGWINTYTGEPTYAEDFKGRFAFSLETSASTAYLQINKLKNEDEATYFCARGEAHWYFDVWGAGTTVTVSSGGSEGKSSGSGSESKSTGGSQIVLTQSPAIMSASLGERVTMTCTASSSVSSSYLYWYQQKPGSSPKLWIYSIFNLASGVPARFSGSGSGTSYSLTISSMEAEDAATYYCHQYHRSPPTFGGGTKLEIK heavy 2: EVRLLESGGGLVQPGGSLRLSCAASGFTFSNYAMGWVRQAPGKGLEWVSAISGSGGSTYYADSVKGRFTTSRDDSKNALYLQMNSLRAEDTAVYYCARGGPGWYAADVWGQGTTVTVSS[here human IgG1 constant region with changes without letters] light: DIQMTQSPSSLSASVGDRVTITCRASQSISSYLNWYQQKPGKAPKLLIYAASSLQSGVPSRFSGSGSGTDFTLTISSLQPEDFATYYCQQADLPAFAFGGGTKVEIKRTVAAPSVFIFPPSDEQLKSGTASVVCLLNNFYPREAKVQWKVDNALQSGNSQESVTEQDSKDSTYSLSSTLTLSKADYEKHKVYACEVTHQGLSSPVTKSFNRGEC
–	78 nM	CD98hc.04.063 (2+1 bispecific antibody) (bispecific antibody) heavy 1: EVRLLESGGGLVQPGGSLRLSCAASGFTFSNYAMGWVRQAPGKGLEWVSAISGSGGSTYYADSVKGRFTTSRDDSKNALYLQMNSLRAEDTAVYYCARGGPGWYAADVWGQGTTVTVSSASTKGPSVFPLAPSSKSTSGGTAALGCLVKDYFPEPVTVSWNSGALTSGVHTFPAVLQSSGLYSLSSVVTVPSSSLGTQTYICNVNHKPSNTKVDKKV[here human IgG1 Fc with changes without letters]GGGGSGGGGSGGGGSEVKLEESGGGLVQPGGSMILSCVASGFTFSNSWMNWVRQSPEKGLEWVAEIRLRSNNYATHYAESVKGRFTISRDDSKSTVYLQMNNLRAEDTGIYYCSRGDPGAYWGQGTLVTVSAGGSEGKSSGSGSESKSTGGSDIQMTQSSSYLSVSLGNRVTITCKASDHIKNWLAWFQQKPGNAPRLLISGATILETGVPSRFSGSGSGKDYTLSITSLQTEDVATYYCQQYWSTPYTFGGGTKLEIK heavy 2: EVRLLESGGGLVQPGGSLRLSCAASGFTFSNYAMGWVRQAPGKGLEWVSAISGSGGSTYYADSVKGRFTTSRDDSKNALYLQMNSLRAEDTAVYYCARGGPGWYAADVWGQGTTVTVSS[here human IgG1 constant region with changes without letters] light: DIQMTQSPSSLSASVGDRVTITCRASQSISSYLNWYQQKPGKAPKLLIYAASSLQSGVPSRFSGSGSGTDFTLTISSLQPEDFATYYCQQADLPAFAFGGGTKVEIKRTVAAPSVFIFPPSDEQLKSGTASVVCLLNNFYPREAKVQWKVDNALQSGNSQESVTEQDSKDSTYSLSSTLTLSKADYEKHKVYACEVTHQGLSSPVTKSFNRGEC

From patent publication US20250270341A1 (Alector, published 2025)
